153 variants from a collection of fitness landscapes (doi:10.1126/science.1257360) can be followed below.

B1: PhoQ; a variant is named by its letters at X, in order, P23837 (parent)
chain: MKKLLRLFFPLSLRVRFLLATAAVVLVLSLAYGMVALIGYSVSFDKTTFRLLRGESNLFYTLAKWENNKLHVELPENIDKQSPTMTLIYDENGQLLWAQRDVPWLMKMIQPDWLKSNGFHEIEADVNDTSLLLSGDHSIQQQLQEVREDDDDAEMTHSVAVNVYPATSRMPKLTIVVVDTIPVELKSSYMVWSWFIYVLSANLLLVIPLLWVAAWWSLRPIEALAKEVRELEEHNRELLNPATTRELTSLVRNLNRLLKSERERYDKYRTTLTDLTHSLKTPLXXLQXXLRSLRSEKMSVSDAEPVMLEQISRISQQIGYYLHRASMRGGTLLSRELHPVAPLLDNLTSALNKVYQRKGVNISLDISPEISFVGEQNDFVEVMGNVLDNACKYCLEFVEISARQTDEHLYIVVEDDGPGIPLSKREVIFDRGQRVDTLRPGQGVGLAVAREITEQYEGKIVAGESMLGGARMEVIFGRQHSAPKDE

The list shows a part of the results.

Variants of B1 are the subject of the test. Description: enrichment ratio after two sorts for PhoP signalling (ratio (wild type AVST 3.29)); higher = more functional. As to conditions: with PhoP (E. coli).
On to SMSA, for which the enrichment ratio was found to be 14.6. AVNT: the enrichment ratio is not above 0.25.

On to PNWL, for which the enrichment ratio is not above 0.25. In the case of AWGT, the enrichment ratio is not above 0.25.

As for ILSE, the enrichment ratio is not above 0.25.

For the variant AIIL, the enrichment ratio was 1.11.

As to VIYT, the enrichment ratio is not above 0.25.

In the case of LAFM, the enrichment ratio worked out at 1.77. Take RAWM: the enrichment ratio is not above 0.25. For VSCS, the enrichment ratio is not above 0.25. Turning to HGQR, the enrichment ratio was not above 0.25. With VQMT, the enrichment ratio was not above 0.25. With TKKE, the enrichment ratio was not above 0.25. For PSDV, the enrichment ratio is not above 0.25. Then VANP, with not above 0.25. To KFHE belongs not above 0.25. In the case of YICC, the enrichment ratio was not above 0.25.

Consider SGDG, for which the enrichment ratio was not above 0.25. Take NWMF: the enrichment ratio was not above 0.25. Then LMHM, with not above 0.25; and YKTE, with not above 0.25; and TCRQ, with not above 0.25. Consider MNNF, for which the enrichment ratio was 5.86. To DDMM belongs not above 0.25; to VGPE, not above 0.25. On to YKNE, for which the enrichment ratio was not above 0.25. To WYML belongs not above 0.25; to IQKW, not above 0.25; to DWEF, not above 0.25. Turning to WRRT, the enrichment ratio is not above 0.25. For the variant QTFW, the enrichment ratio was not above 0.25. Turning to WFQD, the enrichment ratio was not above 0.25. Consider PCII, for which the enrichment ratio is not above 0.25. With MTEP, the enrichment ratio is not above 0.25. As to FVYC, the enrichment ratio was not above 0.25. To DTCL belongs 0.261.

Consider WLGK, for which the enrichment ratio was not above 0.25. On to NPNF, for which the enrichment ratio is not above 0.25. As for KECL, the enrichment ratio is not above 0.25. DATW: the enrichment ratio was not above 0.25. To NADV belongs not above 0.25. As to EEYG, the enrichment ratio is not above 0.25. In the case of RISR, the enrichment ratio was not above 0.25. Then DAWC, with not above 0.25; and WTGP, with not above 0.25; and YCNN, with not above 0.25.

Turning to VFLE, the enrichment ratio is not above 0.25.

As to PYQQ, the enrichment ratio was not above 0.25. Take DTHR: the enrichment ratio is not above 0.25. Regarding IFKG, the enrichment ratio is not above 0.25. For FDKT, the enrichment ratio was not above 0.25. With HYLM, the enrichment ratio is not above 0.25. To RCIG belongs not above 0.25; to IGNV, not above 0.25; to WGYN, not above 0.25.

As for VIAS, the enrichment ratio is not above 0.25.

For the variant FTFF, the enrichment ratio was not above 0.25. With TCPE, the enrichment ratio is not above 0.25. Consider VGWI, for which the enrichment ratio worked out at 1.26. To ICSR belongs not above 0.25.

On to PLRC, for which the enrichment ratio was not above 0.25. On to HLPI, for which the enrichment ratio is 0.276. In the case of WKKG, the enrichment ratio is not above 0.25.

LQEK: the enrichment ratio is not above 0.25. Then IGWL, with not above 0.25; and NGIA, with not above 0.25; and KTMW, with not above 0.25. Consider DNKW, for which the enrichment ratio is not above 0.25. In the case of SGIM, the enrichment ratio is 23.7. For the variant FWFE, the enrichment ratio was not above 0.25. Take KIWL: the enrichment ratio is not above 0.25. As to MLSH, the enrichment ratio is not above 0.25. For the variant FYCP, the enrichment ratio was not above 0.25. Then AKCI, with 10.1; and IFVG, with not above 0.25.

TDRF: the enrichment ratio is not above 0.25.

Regarding SLMM, the enrichment ratio turned out to be 5.51.

AAAS: the enrichment ratio amounted to 2.16. For the variant YYMP, the enrichment ratio was not above 0.25.

For MDDN, the enrichment ratio is not above 0.25. To SFEW belongs not above 0.25; to WNPQ, not above 0.25; to GHIH, not above 0.25. Regarding EVPV, the enrichment ratio is not above 0.25.

For the variant IQMF, the enrichment ratio is not above 0.25. Regarding SESC, the enrichment ratio worked out at 18.4. To SRQN belongs not above 0.25.

Turning to RMYT, the enrichment ratio was not above 0.25. Take MCFM: the enrichment ratio was 8.33.

Turning to NTWD, the enrichment ratio is not above 0.25. For the variant ALTM, the enrichment ratio stood at 5.06. Turning to WCTF, the enrichment ratio was not above 0.25. To KCGT belongs not above 0.25.

Consider TQWV, for which the enrichment ratio is 7.42. Take IPNS: the enrichment ratio was not above 0.25. With WNPD, the enrichment ratio is not above 0.25. Then AAGC, with not above 0.25; and KMWQ, with not above 0.25. Take RTLC: the enrichment ratio was not above 0.25. For NAFE, the enrichment ratio was not above 0.25. Consider VHIR, for which the enrichment ratio was not above 0.25. Turning to RCPC, the enrichment ratio is not above 0.25.

As for KNGE, the enrichment ratio is not above 0.25.

In the case of FGKH, the enrichment ratio was not above 0.25. As for MSTH, the enrichment ratio was not above 0.25. Consider SNQD, for which the enrichment ratio is not above 0.25. Consider SYTE, for which the enrichment ratio is not above 0.25. As to IPAR, the enrichment ratio was not above 0.25. Consider MHPE, for which the enrichment ratio was not above 0.25. Consider RWLT, for which the enrichment ratio was not above 0.25. EYNI: the enrichment ratio was not above 0.25. Take NHPE: the enrichment ratio was not above 0.25. For the variant YMKI, the enrichment ratio was not above 0.25. NWLM: the enrichment ratio was not above 0.25. In the case of KCKE, the enrichment ratio is not above 0.25. Regarding KQEG, the enrichment ratio is not above 0.25. For SITI, the enrichment ratio was 19.7.

In the case of QEVN, the enrichment ratio is not above 0.25. Then SEIQ, with 22.9; and YTKK, with not above 0.25; and QPDW, with not above 0.25.

Regarding DWMG, the enrichment ratio is not above 0.25.

Turning to NADK, the enrichment ratio was not above 0.25. Regarding TGFY, the enrichment ratio is 5.21. To SRLC belongs not above 0.25. For the variant RHQD, the enrichment ratio was not above 0.25. Take YLRP: the enrichment ratio is not above 0.25.

VMDN: the enrichment ratio was not above 0.25.

Regarding LRPQ, the enrichment ratio was not above 0.25. As for DPTG, the enrichment ratio was not above 0.25. Consider YRGC, for which the enrichment ratio is not above 0.25. Consider RGQA, for which the enrichment ratio was not above 0.25. On to HWAM, for which the enrichment ratio is not above 0.25. As for LVRY, the enrichment ratio is not above 0.25. To KTFM belongs not above 0.25; to LSIA, not above 0.25; to FWSF, not above 0.25.

RVLF: the enrichment ratio is not above 0.25. Then LTTK, with not above 0.25; and SAYQ, with not above 0.25. Turning to GFHN, the enrichment ratio is not above 0.25. Then NFSC, with not above 0.25. As to TYPM, the enrichment ratio is not above 0.25.

Turning to DKQN, the enrichment ratio was not above 0.25.

As for IHGD, the enrichment ratio is not above 0.25. Consider NLRV, for which the enrichment ratio was not above 0.25. To PIYY belongs not above 0.25; to QPGS, not above 0.25; to SCGK, not above 0.25.

Turning to PFDK, the enrichment ratio was not above 0.25. For SYNP, the enrichment ratio is not above 0.25.

As for HQYQ, the enrichment ratio is not above 0.25. To HFQA belongs not above 0.25.
